The text below walks through data of patent publication US11178870B2 (priority 2017, dated 2021).

Holding throughout (assay type): in vivo
One experiment concerns Alternaia brassicicola. Description: Test Example C: Alternaria sooty spot on cabbage. To be noted: Table 7, Test C.
A further experiment relates to Botrytis cinerea. Description: Test Example B: Gray mold on tomato. As to conditions: Table 7, Test B.
The test system of another experiment is Puccinia recondita. Description: Test Example E: Brown rust on wheat. As to conditions: Table 7, Test E.
Experiment [1] relates to Blumeria graminis f. sp. hordei. Description: Test Example D: Powdery mildew on barley. As to conditions: Table 7, Test D.
The next experiment relates to Plasmopara viticola. Description: Test Example G: Downy mildew on vine. As to conditions: 250 ppm sprayed (2.5 ml/pot) before inoculation; assessed 7 to 10 days after inoculation.

For `Cc1cnn(-c2cc(Br)c(=O)n(CC(F)F)c2-c2ccc(F)cc2Cl)c1` [Compound 344], the “control value, Test C (Alternaria sooty spot on cabbage)” value (“control value, Test C” below) with Alternaia brassicicola is given as “H (H shows the control value more than 50%)”. In addition, in the experiment on Botrytis cinerea, the “control value, Test B (gray mold on tomato)” value (shortened to “control value, Test B”) was “H (H shows the control value more than 50%)”. In the experiment with Puccinia recondita, the “control value, Test E (brown rust on wheat)” value (from here on “control value, Test E”) is listed as “H (H shows the control value more than 50%)”. The “control value, Test D (powdery mildew on barley)” value (“control value, Test D” for short) in experiment [1] is on record as “H (H shows the control value more than 50%)”. For the same compound, the “control value, Test G (downy mildew on vine)” value (“control value, Test G” below) with Plasmopara viticola is given as “H (H shows the control value more than 50%)”.
Turning to `Cc1cnn(-c2cc(Br)c(=O)n(CC(F)F)c2-c2ccc(F)cc2Cl)c1Cl` [Compound 345], in the experiment with Alternaia brassicicola, the “control value, Test C” value was “H (H shows the control value more than 50%)”. For the same compound, the “control value, Test B” value in the experiment with Botrytis cinerea is “H (H shows the control value more than 50%)”. For the same compound, in the experiment on Puccinia recondita, the “control value, Test E” value is recorded as “H (H shows the control value more than 50%)”. For the same compound, the “control value, Test D” value in experiment [1] was “H (H shows the control value more than 50%)”. The “control value, Test G” value with Plasmopara viticola was “H (H shows the control value more than 50%)”.
On to `O=c1c(Br)cc(-c2ccsc2Br)c(-c2c(F)cccc2F)n1CC(F)F` [Compound 346], for which, in the experiment on Alternaia brassicicola, the “control value, Test C” value is given as “H (H shows the control value more than 50%)”. Moreover, in the experiment with Botrytis cinerea, the “control value, Test B” value is “H (H shows the control value more than 50%)”. The “control value, Test E” value in the experiment on Puccinia recondita is “H (H shows the control value more than 50%)”. Also, in experiment [1], the “control value, Test D” value is given as “H (H shows the control value more than 50%)”. In addition, in the experiment with Plasmopara viticola, the “control value, Test G” value is reported as “H (H shows the control value more than 50%)”.
`O=c1c(Cl)cc(-c2cc(Cl)sc2Br)c(-c2c(F)cccc2F)n1CC(F)F` [Compound 349]: the “control value, Test C” value with Alternaia brassicicola is “H (H shows the control value more than 50%)”. For the same compound, the “control value, Test B” value in the experiment with Botrytis cinerea was “H (H shows the control value more than 50%)”. Further, the “control value, Test E” value in the experiment with Puccinia recondita was “H (H shows the control value more than 50%)”. Further, in experiment [1], the “control value, Test D” value is “L (L shows the control value of 50% or less)”. The “control value, Test G” value with Plasmopara viticola is on record as “H (H shows the control value more than 50%)”.
With `CCn1c(-c2ccccc2Cl)c(-n2cc(F)cn2)ccc1=O` [Compound 350], the “control value, Test C” value with Alternaia brassicicola is “H (H shows the control value more than 50%)”. For the same compound, the “control value, Test B” value with Botrytis cinerea is on record as “H (H shows the control value more than 50%)”. For the same compound, the “control value, Test E” value in the experiment on Puccinia recondita is recorded as “H (H shows the control value more than 50%)”. Also, in experiment [1], the “control value, Test D” value was “H (H shows the control value more than 50%)”. For the same compound, the “control value, Test G” value with Plasmopara viticola was “H (H shows the control value more than 50%)”.
As for `CCn1c(-c2ccccc2Cl)c(-n2cc(F)cn2)cc(Cl)c1=O` [Compound 351], in the experiment on Alternaia brassicicola, the “control value, Test C” value is reported as “H (H shows the control value more than 50%)”. Moreover, the “control value, Test B” value in the experiment with Botrytis cinerea was “H (H shows the control value more than 50%)”. In addition, the “control value, Test E” value with Puccinia recondita is given as “H (H shows the control value more than 50%)”. The “control value, Test D” value in experiment [1] was “H (H shows the control value more than 50%)”. Besides, the “control value, Test G” value in the experiment with Plasmopara viticola was “L (L shows the control value of 50% or less)”.
As for `CCn1c(-c2ccc(F)cc2Br)c(-n2cc(F)cn2)cc(Br)c1=O` [Compound 353], the “control value, Test C” value in the experiment on Alternaia brassicicola is given as “H (H shows the control value more than 50%)”. Further, the “control value, Test B” value in the experiment on Botrytis cinerea is on record as “H (H shows the control value more than 50%)”. Besides, the “control value, Test E” value with Puccinia recondita is on record as “H (H shows the control value more than 50%)”. For the same compound, the “control value, Test D” value in experiment [1] is recorded as “H (H shows the control value more than 50%)”. In addition, the “control value, Test G” value with Plasmopara viticola is reported as “L (L shows the control value of 50% or less)”.
`CCn1c(-c2ccc(OC)cc2Br)c(-n2cc(F)cn2)ccc1=O` [Compound 354]: the “control value, Test C” value in the experiment on Alternaia brassicicola is “H (H shows the control value more than 50%)”. Also, the “control value, Test B” value with Botrytis cinerea is recorded as “H (H shows the control value more than 50%)”. Further, the “control value, Test E” value in the experiment with Puccinia recondita is given as “H (H shows the control value more than 50%)”. The “control value, Test D” value in experiment [1] is on record as “H (H shows the control value more than 50%)”. In addition, the “control value, Test G” value with Plasmopara viticola is “H (H shows the control value more than 50%)”.
For the compound `CCn1c(-c2ccc(OC)cc2Br)c(-n2cc(F)cn2)cc(Cl)c1=O` [Compound 355], the “control value, Test C” value with Alternaia brassicicola is listed as “H (H shows the control value more than 50%)”. Besides, the “control value, Test B” value in the experiment on Botrytis cinerea is reported as “H (H shows the control value more than 50%)”. Also, the “control value, Test E” value in the experiment with Puccinia recondita is “H (H shows the control value more than 50%)”. For the same compound, the “control value, Test D” value in experiment [1] is on record as “L (L shows the control value of 50% or less)”. Besides, the “control value, Test G” value in the experiment on Plasmopara viticola is reported as “L (L shows the control value of 50% or less)”.
Take `CCn1c(-c2ccccc2Br)c(-n2cc(F)cn2)ccc1=O` [Compound 356]: in the experiment with Alternaia brassicicola, the “control value, Test C” value is on record as “H (H shows the control value more than 50%)”. In the experiment on Botrytis cinerea, the “control value, Test B” value is “H (H shows the control value more than 50%)”. The “control value, Test E” value in the experiment with Puccinia recondita is recorded as “H (H shows the control value more than 50%)”. For the same compound, in experiment [1], the “control value, Test D” value is listed as “H (H shows the control value more than 50%)”. Moreover, in the experiment with Plasmopara viticola, the “control value, Test G” value was “L (L shows the control value of 50% or less)”.
As to `CCn1c(-c2ccccc2Br)c(-n2cc(F)cn2)cc(Cl)c1=O` [Compound 357], the “control value, Test C” value in the experiment with Alternaia brassicicola is given as “H (H shows the control value more than 50%)”. Moreover, the “control value, Test B” value in the experiment with Botrytis cinerea was “H (H shows the control value more than 50%)”. The “control value, Test E” value in the experiment with Puccinia recondita was “H (H shows the control value more than 50%)”. The “control value, Test D” value in experiment [1] is on record as “H (H shows the control value more than 50%)”. Moreover, the “control value, Test G” value with Plasmopara viticola is listed as “L (L shows the control value of 50% or less)”.
Turning to `CCn1c(-c2ccccc2Br)c(-n2cc(F)cn2)cc(Br)c1=O` [Compound 358], the “control value, Test C” value in the experiment on Alternaia brassicicola is given as “H (H shows the control value more than 50%)”. For the same compound, in the experiment on Botrytis cinerea, the “control value, Test B” value is “H (H shows the control value more than 50%)”. In addition, the “control value, Test E” value in the experiment with Puccinia recondita was “H (H shows the control value more than 50%)”. Besides, the “control value, Test D” value in experiment [1] is listed as “L (L shows the control value of 50% or less)”. Besides, the “control value, Test G” value with Plasmopara viticola is listed as “L (L shows the control value of 50% or less)”.
Take `CCn1c(-c2c(F)cccc2F)c(-c2sccc2C)ccc1=O` [Compound 359]: the “control value, Test C” value in the experiment with Alternaia brassicicola is recorded as “H (H shows the control value more than 50%)”. In addition, in the experiment on Botrytis cinerea, the “control value, Test B” value is “H (H shows the control value more than 50%)”. The “control value, Test E” value with Puccinia recondita was “H (H shows the control value more than 50%)”. Moreover, in experiment [1], the “control value, Test D” value was “H (H shows the control value more than 50%)”. Further, the “control value, Test G” value with Plasmopara viticola is reported as “H (H shows the control value more than 50%)”.
For `CCn1c(-c2ccc(OC)cc2Cl)c(-n2cc(F)cn2)ccc1=O` [Compound 362], in the experiment on Alternaia brassicicola, the “control value, Test C” value is given as “H (H shows the control value more than 50%)”. The “control value, Test B” value in the experiment with Botrytis cinerea is given as “H (H shows the control value more than 50%)”. Further, the “control value, Test E” value in the experiment with Puccinia recondita is recorded as “H (H shows the control value more than 50%)”. Further, in experiment [1], the “control value, Test D” value is on record as “H (H shows the control value more than 50%)”. Also, the “control value, Test G” value in the experiment on Plasmopara viticola is recorded as “H (H shows the control value more than 50%)”.
For `CCn1c(-c2ccc(OC)cc2Cl)c(-n2cc(F)cn2)cc(Br)c1=O` [Compound 363], the “control value, Test C” value in the experiment on Alternaia brassicicola is “H (H shows the control value more than 50%)”. In addition, the “control value, Test B” value in the experiment on Botrytis cinerea is on record as “H (H shows the control value more than 50%)”. Moreover, the “control value, Test E” value in the experiment with Puccinia recondita is given as “H (H shows the control value more than 50%)”. Further, the “control value, Test D” value in experiment [1] is “L (L shows the control value of 50% or less)”. Also, in the experiment on Plasmopara viticola, the “control value, Test G” value is given as “L (L shows the control value of 50% or less)”.
Consider `CCn1c(-c2c(F)cccc2F)c(-c2sccc2Br)cc(Cl)c1=O` [Compound 365], for which the “control value, Test C” value with Alternaia brassicicola was “H (H shows the control value more than 50%)”. In the experiment with Botrytis cinerea, the “control value, Test B” value is recorded as “H (H shows the control value more than 50%)”. In the experiment on Puccinia recondita, the “control value, Test E” value is given as “H (H shows the control value more than 50%)”. Moreover, the “control value, Test D” value in experiment [1] is given as “H (H shows the control value more than 50%)”. Besides, the “control value, Test G” value with Plasmopara viticola is recorded as “H (H shows the control value more than 50%)”.
Consider `O=c1ccc(-c2ccsc2Cl)c(-c2c(F)cccc2F)n1CC(F)F` [Compound 366], for which the “control value, Test C” value in the experiment on Alternaia brassicicola is given as “H (H shows the control value more than 50%)”. Also, the “control value, Test B” value in the experiment on Botrytis cinerea is recorded as “H (H shows the control value more than 50%)”. The “control value, Test E” value with Puccinia recondita was “H (H shows the control value more than 50%)”. Also, in experiment [1], the “control value, Test D” value is “H (H shows the control value more than 50%)”. Besides, the “control value, Test G” value in the experiment on Plasmopara viticola is recorded as “H (H shows the control value more than 50%)”.
For `CCn1c(-c2ccc(F)cc2C)c(-n2cc(C)cn2)ccc1=O` [Compound 367], the “control value, Test C” value with Alternaia brassicicola is on record as “H (H shows the control value more than 50%)”. Further, the “control value, Test B” value in the experiment with Botrytis cinerea is “L (L shows the control value of 50% or less)”. Moreover, the “control value, Test E” value in the experiment on Puccinia recondita was “L (L shows the control value of 50% or less)”. Also, the “control value, Test D” value in experiment [1] is “H (H shows the control value more than 50%)”. In the experiment with Plasmopara viticola, the “control value, Test G” value was “L (L shows the control value of 50% or less)”.
